The structures appear in SMILES notation. The list shows a part of the results. Repeats are few or missing, and single values can be far off.
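Also: cell number obtained by counting DAPI-stained nuclei in high-throughput microscope images with image analysis software, screen run in 1,536-well plates.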

In one assay the test system is WM115. As to the kind of experiment: cell count relative to DMSO control; melanoma cells; higher = more viable cells. The note with it: library dose: low library concentration; 72 h.
Compound `Nc1nc(F)nc2c1ncn2[C@@H]1O[C@H](CO)[C@@H](O)[C@@H]1O` [fludarabine] + O=C(Nc1cccc(Cl)c1)Nc1ncc(CCNc2ncnc3ccsc23)s1 [SNS314] (first compound 0.2 µM, partner dose 0.0008 µM) had a cell count of 84.7%.

`CC(=O)O[C@@]12CO[C@@H]1C[C@H](O)[C@@]1(C)C(=O)[C@H](O)C3=C(C)[C@@H](OC(=O)[C@H](O)[C@@H](NC(=O)OC(C)(C)C)c4ccccc4)C[C@@](O)([C@@H](OC(=O)c4ccccc4)[C@H]21)C3(C)C` [Docetaxel] + CC(C)CCN1c2nc(Nc3cc(F)c(O)c(F)c3)ncc2N(C)C(=O)C1C [BID1870] (first compound 0.0001 µM, partner dose 0.2 µM) showed a cell count of 60.2%. In turn, `Nc1ncn([C@H]2C[C@H](O)[C@@H](CO)O2)c(=O)n1` [decitabine] + COc1ccc(-c2ccc3c(N4CCOCC4)nc(N4C[C@@H](C)O[C@@H](C)C4)nc3n2)cc1CO [KU0063794] (first compound 0.1 µM, partner dose 0.02 µM) came in with a cell count of 92.3%. For `Nc1ccn([C@@H]2O[C@H](CO)[C@@H](O)C2(F)F)c(=O)n1` [gemcitabine] + CC1(C)NC(=O)N(c2ccc([N+](=O)[O-])c(C(F)(F)F)c2)C1=O [nilutamide] (first compound 0.0004 µM, partner dose 1 µM), the cell count was 93.9%. The compound `CC(=O)c1c(C)c2cnc(Nc3ccc(N4CCNCC4)cn3)nc2n(C2CCCC2)c1=O` [palbociclib] + CC(C)(C)c1cnc(CSc2cnc(NC(=O)C3CCNCC3)s2)o1 [SNS-032] (first compound 0.04 µM, partner dose 0.01 µM) registered a cell count of 82.9%. Regarding `Nc1ccn([C@@H]2O[C@H](CO)[C@@H](O)C2(F)F)c(=O)n1` [gemcitabine] + Cc1ccc(NC(=O)c2cccc(N(C)C)c2)cc1NC(=O)c1ccc(O)cc1 [ZM336372] (first compound 0.0004 µM, partner dose 2 µM), the cell count was found to be 97.1%.

A further assay deals with WM1716. The description is as above. The note with it: library dose: low library concentration; 72 h.
`CC(=O)O[C@@]12CO[C@@H]1C[C@H](O)[C@@]1(C)C(=O)[C@H](O)C3=C(C)[C@@H](OC(=O)[C@H](O)[C@@H](NC(=O)OC(C)(C)C)c4ccccc4)C[C@@](O)([C@@H](OC(=O)c4ccccc4)[C@H]21)C3(C)C` [Docetaxel] + CN(NC(=O)CC(=O)NN(C)C(=S)c1ccccc1)C(=S)c1ccccc1 [STA4783] (first compound 0.0001 µM, partner dose 0.006 µM) gave a cell count of 26.2%.

Turning to `CC(=O)O[C@@]12CO[C@@H]1C[C@H](O)[C@@]1(C)C(=O)[C@H](O)C3=C(C)[C@@H](OC(=O)[C@H](O)[C@@H](NC(=O)OC(C)(C)C)c4ccccc4)C[C@@](O)([C@@H](OC(=O)c4ccccc4)[C@H]21)C3(C)C` [Docetaxel] + Cc1ccc(NC(=O)c2cccc(N(C)C)c2)cc1NC(=O)c1ccc(O)cc1 [ZM336372] (first compound 0.0001 µM, partner dose 2 µM), the cell count was found to be 38.7%. Take `Nc1ncn([C@H]2C[C@H](O)[C@@H](CO)O2)c(=O)n1` [decitabine] + CO[C@@H]1[C@H](N(C)C(=O)c2ccccc2)C[C@H]2O[C@]1(C)n1c3ccccc3c3c4c(c5c6ccccc6n2c5c31)C(=O)NC4 [Midostaurin] (first compound 0.1 µM, partner dose 0.08 µM): the cell count came to 50.7%. In turn, `Nc1ccn([C@@H]2O[C@H](CO)[C@@H](O)C2(F)F)c(=O)n1` [gemcitabine] + CCc1ccc(CCOc2ccc(CC3SC(=O)NC3=O)cc2)nc1 [pioglitazone] (first compound 0.0004 µM, partner dose 2 µM) showed a cell count of 82.7%. As to `CC(=O)c1c(C)c2cnc(Nc3ccc(N4CCNCC4)cn3)nc2n(C2CCCC2)c1=O` [palbociclib] + C=CCn1c(=O)c2cnc(Nc3ccc(N4CCN(C)CC4)cc3)nc2n1-c1cccc(C(C)(C)O)n1 [MK1775] (first compound 0.04 µM, partner dose 0.02 µM), the cell count worked out at 52%. In turn, `CC(=O)c1c(C)c2cnc(Nc3ccc(N4CCNCC4)cn3)nc2n(C2CCCC2)c1=O` [palbociclib] + Oc1cc(-c2nc(-c3ccccc3)[nH]c2-c2ccncc2)ccc1Cl [L779450] (first compound 0.04 µM, partner dose 0.2 µM) yielded a cell count of 70.9%.

The record behind these values is the supplement of paper PMC4604168 (melanoma cell lines).
